Assay results taken from PubChem BioAssay AID485281 (National Center for Advancing Translational Sciences (NCATS), 2010).
Hit rate of the full screen: of about 350,000 compounds, about 260 (0.074%) were called active. The shares of active, inactive and inconclusive entries below differ from those in the screen. Calls come from the whole dose curve; as a rule, active = well fitted inhibition curve with a large enough effect; inconclusive = small, poorly fitted or top-dose-only effect; inactive = no such curve, though single readings can be large or run the other way. Where the call is inconclusive, the potency comes from a doubtful curve fit.

Target: Ferritin light chain (Equus caballus) (UniProt P02791)
Test: qHTS Assay for Identification of Novel General Anesthetics; note: nearly all actives have a fitted effect of over 20% in size
Conditions: apoferritin/1-aminoanthracene competitive binding, fluorescence; series mostly up to 77.5 µM
Procedure, shortened: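 Steps: apoferritin (10 uM) was premixed with half-saturated 1-AMA in PBS, compounds were pin-transferred, plates stood 10 min at room temperature, fluorescence was read at 380/535 nm, and curves were fitted with a Hill equation.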
Potency is the fitted concentration of half-maximal effect; tags give direction and shape of the fitted curve.

Chain of UniProt P02791 (P02791 whole entry, looked up): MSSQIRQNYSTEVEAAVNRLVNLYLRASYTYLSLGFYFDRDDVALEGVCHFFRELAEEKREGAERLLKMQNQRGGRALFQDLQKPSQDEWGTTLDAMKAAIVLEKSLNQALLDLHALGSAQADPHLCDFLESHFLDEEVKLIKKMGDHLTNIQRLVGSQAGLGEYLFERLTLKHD

Potency, inactive:
S=c1[nH]nc(-c2ccccc2)n1CC1CCCO1 (stereo not drawn)
Cc1cccc(-c2nc(Nc3ccc(N4CCOCC4)cc3)c3ccccc3n2)c1
CCCCCOCC1CC(C/C(C)=N/NC(N)=O)(C(=O)OCC)C(=O)O1 (stereo not drawn)
COc1ccc(NC(=O)Cn2c(=O)n(Cc3nc(C)no3)c(=O)c3cc4c(cc32)OCO4)cc1

Potency, inconclusive:
C/C(Cc1ccccc1)=N\NC(=O)CNC(=O)c1ccccc1Br 50.1 µM [inhibitor, single point]
N/C(=N\OC(=O)Cc1ccc(-c2ccccc2)cc1)c1ccncc1 28.2 µM [inhibitor, partial curve]
O=C1NC2(CCCCCC2)C(=O)N1Cc1ccccc1Cl 31.6 µM [inhibitor, single point]
Cc1ccc(CNC(=O)c2cc(C3CC3)nc3c2c(C)nn3-c2cccc(Cl)c2C)cc1 10 µM [inhibitor, single point]
Cc1ccc(NC(=O)c2nc(S(=O)(=O)Cc3cccc(C)c3)ncc2Cl)cc1 11.2 µM [inhibitor, partial curve]
Cc1cc([N+](=O)[O-])ccc1NC(=S)NC(=O)C(c1ccccc1)c1ccccc1 20 µM [inhibitor, partial curve]
C/C(CCc1ccco1)=N/NC(=O)CCC(=O)Nc1cccc(Cl)c1 22.4 µM [inhibitor, partial curve]
O=C(CN(c1cccc(C(F)(F)F)c1)S(=O)(=O)c1ccc(Cl)c([N+](=O)[O-])c1)NCc1ccc(F)cc1 7.94 µM [inhibitor, partial curve]
COC(=O)c1cccc(C(=O)Nc2ccc(C)cc2Br)n1 35.5 µM [inhibitor, single point]
Fc1cccc(NCc2ccoc2)c1 28.2 µM [inhibitor, partial curve]
CC1CCN(C(=S)c2ccc3c(c2)OCO3)CC1 20 µM [inhibitor, partial curve]
Cc1cccc2cc3c(nc12)SC(=NCC1CCCO1)N(Cc1ccco1)C3 (stereo not drawn) 35.5 µM [inhibitor, partial curve]
Cc1cc(C)cc(NS(=O)(=O)c2ccc(-c3cc(C)no3)s2)c1 25.1 µM [inhibitor, single point]
CCN(CC)S(=O)(=O)c1ccc(N2CCOCC2)c(NC(=O)C(=O)c2c(-c3ccccc3)cc3ccccn23)c1 7.08 µM [inhibitor, full curve, poor fit]
